Sequences with one replicate were seen in a single cluster, so their values are uncertain.
Tested on: ATP
Assay: switch fluorescence ratio, 500 uM ATP over buffer (Cy3 cluster intensity, sum of 5 cycles each) (fold (ratio)); higher = stronger signal-on switching upon ATP binding; sequences stand for … in TCGTCGGCAGCGTCAGATGTGTATAAGAGACAGTTTTTTTTTTTTTTTTTTTTTTTTT…TC
Conditions: aptamer strand: ATP DNA aptamer (quencher-CACCTGGGGGAGTATTGCGGAGGAAGG + anchor), 100 nM annealed; ATP concentration: 500 uM; one replicate
Outline: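 Exposure to 500 uM ATP lasted 15 min at 22 °C before imaging, and a selection-buffer image was taken beforehand, for Cy3-labelled switching-strand clusters on a modified Illumina MiSeq flow-cell annealed to 100 nM quencher-labelled ATP aptamer. Five buffer/ATP cycles were run with NaOH stripping and re-annealing between them. The fluorescence ratio per cluster is summed target-cycle over summed buffer-cycle Cy3 intensity, averaged per switch-domain sequence. Clusters outside 100-1000 RFU were excluded.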

Sequence | switch fluorescence ratio
GGCCCAAAGA | 1.1
ACACAGGAGC | 1.08
CGGGACCAG | 1.03
TCGCTGTACC | 1.88
GCCGGGGTAT | 1.01
CGTTGTTTCA | 0.99
CGCACTAAC | 5.31
CGTTGACTGC | 1.07
GAGAAAAAAC | 0.974
ATTTTATCTG | 0.973
CAGTTAGACT | 0.995
AATCGTCTGA | 1.01
TTCCAAGAGG | 0.997
ATGAGTCAGG | 1.03
CCGTGGAAAT | 0.99
CTGTATGGAT | 0.977
TCGTGCTCGC | 0.963
AAGGCTCTTT | 1.01
TGATTTGCCG | 0.846
TTGGCCATCA | 1.01
TGTGATCAGT | 0.97
CGTTCTGTAA | 1.07
GAAGTAGATG | 1.05
CAAAGTAACG | 1.01
AGAAGGCAGT | 0.98
TGCGGGAAAC | 0.978

Sequence | switch fluorescence ratio
CGCCAAGTCG | 0.988
ATTGTCAGAT | 0.964
ATCTCGTCAA | 1.18
ACCCGAAGT | 1.09
GGATTAGCGT | 1.01
CCCGGGAGTT | 0.972
GAGCCTGTAT | 0.998
ACCCAAAATG | 1.03
TAAGACAAGC | 1
TTTCCGGGAG | 1.04
CCCGTTACAG | 1.1
ACTAACGTAG | 1.1
TGCGTAAGTC | 1.03
TTTCAATTT | 0.987
TTGCGTAGA | 1.02
CCGTATGGCC | 1.06
ATTCGGAGTA | 0.998
AGGTATGTAA | 0.946
GGTTGGAAAC | 0.982
TTACCCGATA | 1.01
GAGGTCCCCG | 0.963
CGTAGAACCT | 1.17
GGGCAGTGTT | 1.08
GAGGACCGGG | 0.992
TTGTATCGAC | 1.05
TACGATAACT | 1.15

Sequence | switch fluorescence ratio
TGGTATCGAT | 1
TTCCACATAT | 1.09
AGTTGCATCC | 1.01
GTGACCATAC | 1.74
CTCCCCGGCC | 1.49
ATAACGCATA | 1.63
TGAGGTGTCG | 0.935
TGATCATTAT | 0.996
GGATTGAGTA | 1.01
CGCAGCTCTA | 2.32
TAACCATTGA | 1.03
GTAAATTCTA | 1
AGTAAATAAT | 0.95
TGTGTTACAA | 1.02
GTCGATATTG | 0.973
ATGCTGTACG | 0.987
GAGGGTGCAC | 1.08
CCTTTGGGTA | 1.03
GCGAGATTAT | 0.965
ACAGGTCTGC | 1.06
AATAAAAAGC | 0.972
TGCGGCTCAT | 0.959
ACATCTCTAA | 0.968
GAAATAGAGG | 0.998
TCTGATCAAT | 1.13
CAGAGAGTCG | 0.958

Sequence | switch fluorescence ratio
CGAGACACAA | 0.994
GCCTTACGGC | 1.02
ACGTATCCG | 1.05
GTAAACTTTA | 1
AATCCACCAG | 2.53
GCGACAGTTT | 0.967
GATAACATAT | 0.984
CAACTGACGG | 1.32
GTTTCATTTG | 0.987
TAATGGGCCA | 1
CGATCGTAAA | 1
AAAAAACATT | 1.03
ATCAGGGT | 0.98
TTGCACACC | 1.08
TAGCAGACGT | 1.06
CTACTCAGA | 1.04
GTGGCTCATC | 0.957
TAATAACAGG | 1.01
ATTGGGG | 0.981
AGTTATAAGC | 0.983
CTGGTCCGAC | 1.34
CGGATGTGAA | 0.995
CCGTTTTGGA | 0.963
TCTCTTCCGG | 1.26
TCGCTGAGTA | 1.02
CCGAGAACAA | 5.18

Sequence | switch fluorescence ratio
GCCAATTCCT | 1.01
AAGGTACGAC | 1.02
ACTCGCTCGT | 0.964
GTCCACCTCA | 1.02
CCGGCCCGCA | 3.95
GTAGTCGTGG | 1
TTTAGATCGT | 1.01
GCCAGGCTCG | 1.01
TTACCG | 0.986
GAACATGGCA | 0.969
AGATGCTCAG | 1.01
CGGTCCGGTC | 1.01
ACGGTTCGCG | 0.989
CTGGTGTCTT | 0.975
CGGACGATGG | 0.976
TATACGTCGC | 0.975
TCCGGGGTCT | 1.08
ACAAAGGCGC | 0.987
TACGTGTACG | 1
CAAGAAGTGT | 0.956
ACATTTGTTC | 0.997
ATCGTGGTTT | 0.954
GAGCTAGCAG | 1.01
CCCCGGCAGC | 4.44
TCACTGTGCC | 1.02
ATCATTTTAT | 0.985

Sequence | switch fluorescence ratio
ACGCGAGAGG | 0.998
AAACAGATTA | 0.992
TGGAGTTCCG | 0.98
CACAATTCGT | 1
GGTAGAGATG | 0.987
TCGGCGTGTT | 0.971
GGGTGACGTT | 1
GACTATCGGC | 0.994
GTACAAGAG | 1.06
CTGGGTTGTC | 0.988
CTTAACGGCT | 0.995
TATGATTCTT | 1.02
ATATTTAGGA | 0.966
TATGGGTGGA | 0.986
GAGTGCGTTA | 1.02
CTTGACGGA | 0.963
AGGGTTAATC | 1.03
CGCACCGTG | 1.02
GTCGCACGGG | 0.936
TGACTATGGC | 1
CGACGTAGCT | 1.16
CTCCTCTTGG | 1.24
ATAGCTCGTA | 1.01
